Reference: PubChem BioAssay AID1963576 (National Center for Advancing Translational Sciences (NCATS), 2024)
In all, about 46,000 compounds went through this assay and about 60 (0.1%) were called active. Roughly 3% stayed inconclusive and do not appear here. The call rests on the fitted dose curve; in most records, active means well fitted inhibition curve with a large enough effect; inconclusive means small, poorly fitted or top-dose-only effect; inactive means no such curve, though single readings can be large or run the other way. The list shows a part of the results.

Test: Primary qHTS assay for Inhibitors of ovarian cancer metastasis using an organotypic tumor microenvironment (TME) model. Further: nearly all actives have a fitted effect of over 65% in size.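 On Potency: count of GFP cancer cells still attached after washing and fixation.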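 On activity change, negative = inhibition: plate controls were DMSO wells for no effect and tomatine positive control wells for full effect.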
Conditions: SKOV3ip1-GFP adhesion/invasion on 3D omental model, fluorescence; series mostly up to 45.8 µM; activity change, negative = inhibition: at the top concentration
In short: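 Primary human omental fibroblast/mesothelial 3D culture pre-formed 48 h. SKOV3ip1-GFP cells added with compounds (0.36-46 umol/L), incubated 2 h RT/16 h 37 C, fixed; GFP cells quantified at 488/509 nm.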
Potency means the concentration at half of the fitted maximal effect.

Row | Compound | activity change, negative = inhibition | outcome | Potency
1 | Cc1ccc(-c2noc(-c3nnn(CC(=O)Nc4cccc(C(F)(F)F)c4)c3N)n2)cc1 | inactive: -27.9% |  | 
2 | CCOC(=O)c1cccc(NC(=O)Nc2ccc3c(c2)N(C)C(=O)c2ccccc2S3)c1 | inactive: 9.1% |  | 
3 | CCOC(=O)c1c(C)oc2nc(C)nc(NCCCN3CCN(c4cc(Cl)ccc4C)CC3)c12 | inactive: 11.5% |  | 
4 | Cc1ccc(C(=O)NCC(=O)OCc2cc(=O)n3nc(C4CC4)sc3n2)cc1 |  | inactive | 
5 | O=C(NCCCN1CCN(c2ccccc2F)CC1)C1COc2ccccc2C1 (centres undefined) | inactive: 6.3% |  | 
6 | O=C(Nc1cccc(-c2nc3ccccc3[nH]2)c1)c1c(F)cccc1F | inactive: -3.37% |  | 
7 | COc1ccc(S(=O)(=O)Cc2ccc(C(=O)N3CCN(c4cc(C)ccc4C)CC3)o2)cc1 | inactive: 15.7% |  | 
8 | O=C(O)c1cccnc1SCc1cccc(Cl)c1 | inactive: -0.323% |  | 
9 | CCOc1ccc(S(=O)(=O)Nc2ccc(OC)c(Cl)c2)c2cccnc12 |  | inactive | 
10 | O=S(=O)(Nc1cccc(-c2ccc(N3CCCC3)nn2)c1)c1cc(F)ccc1F | inactive: 2.35% |  | 
11 | Cc1cccc(OCCSc2nc3ccccc3n2CC(=O)N2CCOCC2)c1C | inactive: 7.32% |  | 
12 | CCN1C(=O)c2ccccc2S(=O)c2ccc(C(=O)NCc3ccccc3OC)cc21 (centres undefined) |  | inactive | 
13 | CCOC(=O)N1CCN(Cc2nc3cc(NC(=O)c4ccc([N+](=O)[O-])cc4)ccc3n2C(C)C)CC1 | inactive: -5.58% |  | 
14 | CC[C@@H]([C@H](C)O)n1ncn(-c2ccc(N3CCN(c4ccc(OCC5CO[C@@](Cn6cncn6)(c6ccc(F)cc6F)C5)cc4)CC3)cc2)c1=O (some centres undefined) | inactive: 3.73% |  | 
15 | CCOc1ccc(C2C(C(N)=O)=C(C)Nc3nc(-c4cccc(Cl)c4)nn32)cc1OC (centres undefined) | inactive: -2.3% |  | 
16 | Cc1ccc(NC(=O)C2CCCN(S(=O)(=O)c3c(C)nn(C)c3C)C2)c(C)c1 (centres undefined) | inactive: -3.95% |  | 
17 | COc1cc(/C=C/c2nc3cc(Cl)ccc3c(=O)n2-c2ccc(C)cc2C)cc(OC)c1OC | inactive: -1.4% |  | 
18 | CSc1ccc(NC(=O)Cn2nnnc2-c2ccccc2F)cc1 | inactive: -8.04% |  | 
19 | COc1cccc(CNC(=O)Cn2c(SCC(=O)Nc3ccc(C)c(C)c3)nc3ccccc32)c1 | inactive: -8.04% |  | 
20 | CCCCCOc1ccc(NC(=O)Cn2c(-c3cncs3)nc3ccccc32)cc1 | inactive: -69.4% |  | 
21 | O=C(O)c1c2c(nc3ccc(S(=O)(=O)N4CCC(C(=O)NCc5ccc(Cl)cc5)CC4)cc13)CCCC2 |  | inactive | 
22 | CCOC(=O)c1c(C)oc2nc(C)nc(N3CCN(c4cccc(C)c4C)CC3)c12 | inactive: 4.06% |  | 
23 | Cc1cc(Nc2cccc(C(F)(F)F)c2)nc2ccc(NC(=O)c3cccnc3)cc12 |  |  | active: 11.2 µM
24 | CCOC(=O)c1c(C)n(S(=O)(=O)c2ccc(C)cc2)c2ccc(NS(=O)(=O)c3ccc(C)cc3)cc12 | inactive: -1.15% |  | 

Row | Compound | activity change, negative = inhibition | outcome | Potency
25 | CC(NC(=O)c1cc(-c2ccc(Cl)cc2)on1)c1ccccc1 (centres undefined) | inactive: -2.56% |  | 
26 | CCc1cccc(NC(=O)c2cccc3c2C(=O)N(C2CCCCC2)C3)c1 | inactive: 23.1% |  | 
27 | O=C(NCC(c1cccnc1)N1CCc2ccccc21)C(=O)Nc1ccccc1F (centres undefined) | inactive: -5% |  | 
28 | COc1nnc(-c2ccc(N3CCCCC3)c(NC(=O)c3ccccc3)c2)c2ccccc12 |  | inactive | 
29 | COc1ccc(Nc2ncnc3c2nc2n3CCCC2)cc1Cl |  | inactive | 
30 | Cc1ccccc1C(=O)Nc1ccc2oc(-c3ccc(Cl)c(Cl)c3)nc2c1 | inactive: 32.4% |  | 
31 | Cc1ccccc1Nc1nnc(-c2ccc(C)c(S(=O)(=O)N3CCCCC3)c2)c2ccccc12 | inactive: 40.3% |  | 
32 | COc1ccc(CNC(=O)c2ccc3c(c2)N(Cc2ccccc2)CCS3)cc1 | inactive: 2.41% |  | 
33 | CCOC(=O)c1nnn(CC(=O)NC(=O)Nc2ccc(F)cc2)c1C(=O)OCC | inactive: 4.5% |  | 
34 | CN(C)c1ccccc1CN1CCCN(Cc2ccccc2N(C)C)C1c1ccncc1 | inactive: 11.8% |  | 
35 | Cc1nc2nc(C(F)(F)F)[nH]n2c(=O)c1Cc1ccccc1 | inactive: 14.4% |  | 
36 | Cc1oc2ncn(CC(C)C)c(=O)c2c1C(=O)N(Cc1ccccc1)C(C)C | inactive: -8.69% |  | 
37 | O=C(NCC(c1ccc2c(c1)OCO2)N1CCN(c2ccccc2)CC1)c1ccccc1 (centres undefined) | inactive: 11.6% |  | 
38 | CC1Cn2cc(C(=O)Nc3ccccc3C(F)(F)F)c(=O)c3c(Cl)ccc(c32)O1 (centres undefined) |  | inactive | 
39 | CC(C)Oc1ccc(C(=O)Nc2nc3c(s2)CC(C(C)(C)C)CC3)cc1 (centres undefined) | inactive: -5.21% |  | 
40 | Cc1ccc(O)c(NC(=O)CCSc2nc(-c3ccco3)cc(C(F)(F)F)n2)c1 | inactive: -6.83% |  | 
41 | CCOc1ccccc1NC(=O)c1c(NC(=O)c2ccncc2)sc2c1CCC(C(C)(C)C)C2 (centres undefined) | inactive: 22.4% |  | 
42 | COc1ccc(Cl)cc1NS(=O)(=O)c1c(C)[nH]c(=O)[nH]c1=O | inactive: -0.0587% |  | 
43 | O=C(CN1C(=O)C2(SCC(=O)N2c2ccc(Cl)cc2)c2ccccc21)NCCc1ccccc1 (centres undefined) | inactive: 22.8% |  | 
44 | Cc1ccc(Cn2c(C)c3cnn(CC(=O)N4CCN(c5ccc(F)cc5)CC4)c(=O)c3c2C)cc1 |  | inactive | 
45 | O=c1c2ccccc2nc2n1CCc1c-2[nH]c2ccccc12 | inactive: -1.3% |  | 
46 | O=C(/C=C/c1ccccc1)N1CCN(Cc2cc(=O)n3nc(-c4ccccc4Cl)sc3n2)CC1 | inactive: 4.46% |  | 
47 | COc1cc(OC)c(NC(=O)c2cn(C)c(=O)c3cc(OC)c(OC)cc23)cc1Cl | inactive: -1.18% |  | 
48 | Cc1ccc(C(=O)c2oc3ccccc3c2NC(=O)COc2ccc(C(C)(C)C)cc2)cc1 |  | inactive | 

Row | Compound | activity change, negative = inhibition | outcome | Potency
49 | Cc1ccc(COc2cccc3cc(-c4noc(-c5ccc(C)cc5)n4)c(=O)oc23)cc1 | inactive: 10.2% |  | 
50 | Cc1ccc(NC(=O)Cn2cnc3c(oc4ccccc43)c2=O)cc1 | inactive: 21% |  | 
51 | CC(C)C(=O)c1cc2c(cc1NC(=O)c1ccccc1F)OCCO2 | inactive: 10.8% |  | 
52 | COc1ccc(C(=O)NCc2nnc(SCC(=O)Nc3ccc(F)cc3)n2-c2ccccc2)cc1 | inactive: 15.2% |  | 
53 | COC(=O)c1ccc(NC(=O)CSc2nc3c(c(=O)n(C)c(=O)n3C)n2Cc2ccccc2)cc1 | inactive: 9.19% |  | 
54 | Cc1ccc(S(=O)(=O)Nc2c(C)nc3nc(C)[nH]n3c2=O)c(C)c1 | inactive: 6.03% |  | 
55 | CN(C)c1ccc(NC(=O)CSC2=Nc3ccccc3C3=NC(CC(=O)NCc4ccc5c(c4)OCO5)C(=O)N23)cc1 (centres undefined) | inactive: 4.36% |  | 
56 | Oc1ccc(NCc2ccccc2OCc2ccccc2Cl)cc1 | inactive: -4.75% |  | 
57 | COc1ccc(Cl)cc1NC(=O)c1c(NCc2cccs2)sc2c1CCCC2 |  | inactive | 
58 | Cc1cccc(-n2ncc(C(=O)Nc3ccc4c(c3)OCO4)c2C2CCN(C(=O)OC(C)(C)C)CC2)c1 | inactive: 9.29% |  | 
59 | Cc1ccccc1-c1noc(-c2cc(C(C)C)[nH]n2)n1 | inactive: -8.91% |  | 
60 | COc1ccccc1Cc1nc2ccccc2nc1SCC(=O)N1CCCc2ccccc21 | inactive: 5.64% |  | 
61 | C[C@]12C=CC(=O)N[C@@H]1CC[C@H]1[C@H]3CC[C@@H](C(=O)Nc4cc(C(F)(F)F)ccc4C(F)(F)F)[C@@]3(C)CC[C@@H]12 | inactive: -6.18% |  | 
62 | Cc1cc(Nc2ccc(Cl)cc2)n2cnnc2n1 | inactive: -0.13% |  | 
63 | CC(=O)N1CCc2cc(S(=O)(=O)CCC(=O)N3CCN(c4ccccc4F)CC3)ccc21 | inactive: 4.75% |  | 
64 | COc1ccc(-c2nnc(SCC(=O)c3ccc([N+](=O)[O-])cc3)o2)cc1OC |  | inactive | 
65 | CCOc1ccccc1N1CC(c2nc3ccccc3n2CCOc2ccccc2OC)CC1=O (centres undefined) | inactive: -6.85% |  | 
66 | Cc1cccn2c(=O)c3cc(C(=O)NC(C)c4ccccc4)c(=N)n(CCOCCO)c3nc12 (centres undefined) |  | inactive | 
67 | COc1ccc2c(c1)Cc1sc(NC(=O)c3ccc(Cl)cc3)nc1-2 | inactive: -3.27% |  | 
68 | Cc1ccc(-n2c(SCc3ccccc3C)nc3[nH]ncc3c2=O)cc1C | inactive: -13.9% |  | 
69 | N#C/C(=C\c1ccc(-c2ccc(Cl)c(C(=O)O)c2)o1)c1nc2ccccc2[nH]1 | inactive: 2.4% |  | 
70 | O=C(NCc1ccccc1Cl)C(=O)NCC(c1cccs1)S(=O)(=O)c1ccccc1 (centres undefined) | inactive: -5.85% |  | 
71 | O=C(NCc1cccnc1)C1CCN(Cc2cc3ccccc3n2Cc2ccccc2)CC1 | inactive: 5.29% |  | 
72 | CCOc1ccc(N(C(=O)c2ccc(OC)cc2)S(=O)(=O)c2ccc3c(c2)n(C)c(=O)n3C)cc1 | inactive: -0.165% |  | 

Row | Compound | activity change, negative = inhibition | outcome | Potency
73 | Cc1ccccc1-c1noc(-c2ccc(N3CCCC3)c([N+](=O)[O-])c2)n1 | inactive: 10.6% |  | 
74 | CC(=O)N1CCCc2ccc(NC(=O)c3ccc(C(F)(F)F)cc3)cc21 | inactive: -8.98% |  | 
75 | CCOC(=O)c1cc(OC(=O)c2cccc(F)c2)n(-c2ccccc2)n1 |  | inactive | 
76 | CC(C)c1ccc(-c2noc(SCC(=O)N(C)c3ccc(F)cc3)n2)cc1 |  | inactive | 
77 | COC(=O)c1cc2oc(C)cc2n1Cc1ccc(C)cc1 | inactive: -2.93% |  | 
78 | Cc1cc(C)cc(NC(=O)CSc2nnc(CNC(=O)c3c(F)cccc3Cl)o2)c1 | inactive: 4.33% |  | 
79 | CCN(CC)S(=O)(=O)c1ccc2c(c1)N(CC(=O)Nc1c(C)cc(C)cc1C)C(=O)CS2 | inactive: 20.4% |  | 
80 | CCC(=O)C1=C(c2ccc(F)cc2)N(C(=O)CC)n2c(nnc2C2CCCCC2)S1 | inactive: -18.5% |  | 
81 | CCC(=O)OC1=CN(Cc2ccccc2)S(=O)(=O)c2ccccc21 | inactive: 1.32% |  | 
82 | CC(C)c1ccc(NC(=O)CN2C=NS(=O)(=O)c3ccccc32)cc1 | inactive: -8.2% |  | 
83 | N#C/C(=C\c1c(Oc2ccc(F)cc2)nc2ccccn2c1=O)c1nc2ccccc2s1 | inactive: 2.08% |  | 
84 | Cc1cccc(N2CCN(C(=O)CN3C(=O)COc4ccc(S(=O)(=O)N5CCCC5)cc43)CC2)c1C |  | inactive | 
85 | CCOc1ccc(CCNC(=O)Cn2nc(CC)n3c(cc4c(OC)cccc43)c2=O)cc1OCC | inactive: -20.2% |  | 
86 | Cc1oc(-c2cccc(Br)c2)nc1CSc1nc2ncccc2[nH]1 |  | inactive | 
87 | CCc1ccc(CNC(=O)C2CCN(C(=O)c3ccc(-n4ccc5ccccc54)s3)CC2)cc1 | inactive: -10.8% |  | 
88 | O=C1CC(c2ccc(F)cc2)c2c(n3c(nc4ccccc43)[nH]c2=O)N1 (centres undefined) | inactive: -4.25% |  | 
89 | CCCOc1ccc(C(=O)Nc2sc3c(c2C(=O)OCC)CCCCC3)cc1 | inactive: 7.57% |  | 
90 | Cc1oc(-c2cccc(Br)c2)nc1CN1CCC(C(=O)NCc2ccccc2)CC1 | inactive: -0.279% |  | 
91 | Cc1ccc(NC(=O)c2ccc(F)c(S(=O)(=O)NCCc3ccccc3)c2)cc1F |  | inactive | 
92 | Cc1nc(-c2ccccc2)sc1-c1ccc(SCC(=O)Nc2ccccc2)nn1 | inactive: -6.7% |  | 
93 | O=C(Cn1c2ncccc2c(=O)n1-c1ccccc1)NCc1ccccc1 |  | inactive | 
94 | O=C(CS(=O)(=O)c1nc(-c2ccc(Cl)cc2)cn1-c1ccccc1)Nc1cccc(Cl)c1 | inactive: -20.4% |  | 
